Data as given in PubChem BioAssay AID463173 (ICCB-Longwood Screening Facility, Harvard Medical School, 2010).
Among all 52,000 compounds or so, about 1,700 (3.3%) were called active. No stated cut-off is given here; in the data, active means survival mostly below about 52% (no sharp cut-off); inactive means mostly above about 56%. The list shows a part of the results.

system: Wild type; assay: S. aureus survival, RN4220 and DeltatarO strains – OD600, teichoic acid synthesis inhibitors, primary screen (AID 463173); conditions: S. aureus RN4220 wild type/DeltatarO growth, OD600, 18 h, stronger effect = lower value, screened at 18.75 µg/mL (by protocol)

Q: How did the survival turn out when `Cc1ccc(SCc2nc(-c3ccc(C(=O)NCC(C)c4ccccc4)cc3)oc2C)cc1` (stereo unspecified) was run?
A: inactive: 82%

Q: With `CCN(c1ccccc1)S(=O)(=O)c1ccc(NC(=O)c2nc(SC(C)C)ncc2Cl)cc1` as the compound, how does the survival read?
A: inactive: 81%

Q: How did the survival turn out when `CCOC(=O)c1cnc2ccc(OCC)cc2c1Nc1ccc(OCc2ccccc2Cl)cc1` was run?
A: active: 5%

Q: How did the survival turn out when `Cc1cccc(CNC(=O)CN2C(=O)CSc3c2c(C)nn3-c2ccccc2)c1` was run?
A: inactive: 72%

Q: With `COc1cc(C(CC(=O)Nc2ncccc2C)N2Cc3ccccc3C2=O)cc(OC)c1OC` (stereo unspecified) as the compound, how does the survival read?
A: inactive: 71%

Q: Which survival does the source give for `CC(C)OC(=O)Cn1c(C2CC2)nc2ccccc2c1=O` here?
A: inactive: 115%

Q: With `COc1ccc(-c2nc3cc(NC(=O)c4ccc(C)cc4)ccc3o2)cc1Cl` as the compound, how does the survival read?
A: inactive: 97%

Q: Which survival does the source give for `CC(=O)c1cc(-c2ccc(F)cc2)n(CCC(=O)Nc2nc3ccc(C)cc3s2)c1C` here?
A: inactive: 68%

Q: For `O=C(OCc1cc(=O)n2nc(C3CC3)sc2n1)c1ccc(NC(=O)c2ccccc2F)cc1`, which survival is on record?
A: inactive: 82%

Q: How did the survival turn out when `Cc1ccc(C(=O)N2CCC(C)CC2)cc1NC(=O)c1nsc2ccccc12` was run?
A: inactive: 80%

Q: Which survival does the source give for `CCOc1ccc(Br)cc1C1NC(=O)c2c(sc3c2CCN(C)C3)N1` (stereo unspecified) here?
A: inactive: 77%

Q: How did the survival turn out when `COc1ccc(CCNc2ncnc3onc(C)c23)c(OC)c1` was run?
A: inactive: 143%

Q: Which survival does the source give for `COCCCn1c(=N)c(C(=O)NC2CCCCC2)cc2c(=O)n3cc(C)ccc3nc21` here?
A: inactive: 78%

Q: With `CCCC(=O)N1CCN(c2ccc(NC(=O)c3ccco3)cc2Cl)CC1` as the compound, how does the survival read?
A: inactive: 92%

Q: For `CC1CCN(S(=O)(=O)c2ccc3nc(N4CCN(c5ccc(F)cc5)CC4)ccc3c2)CC1`, which survival is on record?
A: inactive: 92%

Q: `CCc1ccccc1NC(=O)c1ccc(F)c(S(=O)(=O)N2CCN(c3cccc(Cl)c3)CC2)c1` was tested. Which survival did it give?
A: inactive: 63%

Q: With `CC1CCCCN1CCCNC(=O)Cn1ncc2c3ccccc3n(C)c2c1=O` (stereo unspecified) as the compound, how does the survival read?
A: inactive: 85%

Q: Which survival does the source give for `Cc1ccc(S(=O)(=O)c2cc3cc(C(=O)Nc4ccc(C)cc4C)ccc3oc2=O)cc1` here?
A: inactive: 91%

Q: Which survival does the source give for `CCOc1ccc(NC(=O)CSc2oc(-c3ccc(C)cc3)nc2S(=O)(=O)c2ccc(C)cc2)cc1` here?
A: inactive: 143%

Q: For `COc1ccc(-c2cc(C(F)(F)F)nc(NCc3ccc(F)cc3)n2)cc1`, which survival is on record?
A: active: -5%

Q: With `COc1cccc(C(=O)N(Cc2ccc(C)o2)C2CCS(=O)(=O)C2)c1` (stereo unspecified) as the compound, how does the survival read?
A: inactive: 87%

Q: Which survival does the source give for `O=C(COCc1cc(-c2cccs2)on1)Nc1cc(C(F)(F)F)ccc1Cl` here?
A: inactive: 83%

Q: Which survival does the source give for `CC(C)OCCCNC(=O)CCCN1C(=O)CCn2nc(-c3cccn3C)cc21` here?
A: inactive: 131%

Q: How did the survival turn out when `Cc1ccc(O)c(-c2n[nH]c3c2C(c2ccc(F)cc2)N(Cc2ccco2)C3=O)c1` (stereo unspecified) was run?
A: active: 2%

Q: How did the survival turn out when `Cc1cc(C)c(NC(=O)CSc2nc3c([nH]c4ccccc43)c(=O)n2C)c(C)c1` was run?
A: inactive: 77%

Q: With `O=c1[nH]c2nonc2nc1/C=C(\O)c1ccccc1` as the compound, how does the survival read?
A: inactive: 34%

Q: For `COc1ccc(CCNC(=O)c2ccc(Cn3c(=O)[nH]c4cc(OC)c(OC)cc4c3=O)cc2)cc1OC`, which survival is on record?
A: inactive: 76%

Q: With `CCc1ccccc1N(CC)C(=O)C1CCN(c2ncnc3c2nc2n3CCCCC2)CC1` as the compound, how does the survival read?
A: inactive: 59%

Q: For `CN=C1SC(C(=O)Nc2ccccc2)CC(=O)N1C` (stereo unspecified), which survival is on record?
A: inactive: 114%

Q: For `COc1cc(NC(=O)C2CCN(c3nc4ccccc4nc3C(F)(F)F)CC2)cc(OC)c1`, which survival is on record?
A: inactive: 78%

Q: How did the survival turn out when `CCCCNC(=O)CN1CCN(c2ncc(NC(=O)c3ccc(Cl)cc3)cc2C(=O)O)CC1` was run?
A: inactive: 75%

Q: `CCCOc1cccc(C2c3c(oc4ccc(F)cc4c3=O)C(=O)N2c2nc(C)c(C(C)=O)s2)c1` (stereo unspecified) was tested. Which survival did it give?
A: inactive: 64%

Q: With `COCCc1nn2c(=O)cc(COC(=O)c3ccc(Br)cc3)nc2s1` as the compound, how does the survival read?
A: inactive: 134%

Q: With `CCC(C)NC(=O)c1sc2nc3n(c(=O)c2c1C)CCC3` (stereo unspecified) as the compound, how does the survival read?
A: inactive: 85%

Q: For `CN1CCN(C(CNC(=O)c2c(F)cccc2F)c2ccc3c(c2)OCO3)CC1` (stereo unspecified), which survival is on record?
A: inactive: 93%

Q: How did the survival turn out when `CC(=O)N1N=C(c2ccccc2)CC1c1ccccc1` (stereo unspecified) was run?
A: inactive: 104%

Q: Which survival does the source give for `Cc1cccc(N2CCN(C(=O)c3cc4ccc5cccnc5c4[nH]3)CC2C)c1` (stereo unspecified) here?
A: inactive: 101%

Q: For `N#CC(C(=O)c1ccc(F)cc1)c1nc2ccccc2[nH]1` (stereo unspecified), which survival is on record?
A: inactive: 103%

Q: `CCN(C(=O)Cn1ncc2c(=O)oc3ccccc3c21)c1ccccc1F` was tested. Which survival did it give?
A: inactive: 122%

Q: `O=c1c2ccccc2n(Cc2cccc(Cl)c2)c(=O)n1Cc1ccccc1` was tested. Which survival did it give?
A: inactive: 96%

Q: For `COCCCNc1nc(NCc2ccc(C)cc2)c2cnn(C)c2n1`, which survival is on record?
A: inactive: 86%

Q: With `O=C1NC(=O)C(Nc2cccc3ccccc23)S1` (stereo unspecified) as the compound, how does the survival read?
A: inactive: 104%

Q: For `COc1cccc2c1cc1c(=O)n(CC(=O)N3CCC(C)CC3)nc(C)n12`, which survival is on record?
A: inactive: 83%

Q: Which survival does the source give for `COc1ccccc1-c1nc(SCC(=O)c2ccc(Cl)cc2)n[nH]1` here?
A: inactive: 131%

Q: `CCC(=O)Nc1sc2c(c1C(=O)Nc1ccc(Br)cc1)CCCCC2` was tested. Which survival did it give?
A: inactive: 144%

Q: For `Cc1cc(C)c(O)c(N)c1`, which survival is on record?
A: inactive: 113%

Q: `Cc1ccc2oc(=O)c3cc(C(=O)NCCc4ccc(Cl)cc4)sc3c2c1` was tested. Which survival did it give?
A: inactive: 84%

Q: For `COc1cc(OC)cc(C(=O)NCCc2csc(-c3ccc(C(F)(F)F)cc3)n2)c1`, which survival is on record?
A: inactive: 55%

Q: Which survival does the source give for `CC1=CC(C)(C)N(C(=O)CNC2CCCCC2)c2cc(C)ccc21` here?
A: inactive: 105%

Q: With `Cc1ccc(NC(=O)CCN2C(=O)c3ccccc3Sc3ncccc32)c(Cl)c1` as the compound, how does the survival read?
A: inactive: 89%

Q: With `COc1ccccc1NC(=O)c1sc2nc(C)c(C(=O)Nc3ccc(C)cc3C)c(-c3ccccc3Cl)c2c1N` as the compound, how does the survival read?
A: inactive: 139%

Q: How did the survival turn out when `CCS(=O)(=O)N1CCc2cc(C(=O)NCc3ccccc3Cl)ccc21` was run?
A: inactive: 84%

Q: `CCCCc1nn2c(=O)cc(COC(=O)c3ccccc3C)nc2s1` was tested. Which survival did it give?
A: inactive: 72%

Q: How did the survival turn out when `CN(Cc1ccccc1)S(=O)(=O)c1ccc2c3c(cccc13)C(=O)N2` was run?
A: inactive: 112%

Q: How did the survival turn out when `Cc1ccc(-n2nc3c(=O)n(C(C)C(=O)NCc4ccccc4C)nc(C)c3c2C)cc1` (stereo unspecified) was run?
A: inactive: 128%

Q: How did the survival turn out when `CCOc1ccccc1NS(=O)(=O)c1cc(-c2cnc(C3CC3)o2)ccc1C` was run?
A: inactive: 135%

Q: How did the survival turn out when `CCc1ccccc1NC(=O)NC(CC)Cn1nnc2ccccc2c1=O` (stereo unspecified) was run?
A: inactive: 93%

Q: `CCCn1nnnc1SCC(=O)N1CCCC1` was tested. Which survival did it give?
A: inactive: 97%

Q: How did the survival turn out when `Cc1cc2n(n1)CCC(=O)N2Cc1ccc(C(=O)Nc2cccc(C(F)(F)F)c2)cc1` was run?
A: inactive: 75%

Q: How did the survival turn out when `Cc1ccc(C)c(NC(=O)CSc2nc(=O)n(Cc3ccncc3)c3c2CCC3)c1` was run?
A: inactive: 102%

Q: How did the survival turn out when `CC(=O)N1c2ccc(S(=O)(=O)NCCC(=O)N(C)Cc3ccccc3)cc2CC1C` (stereo unspecified) was run?
A: inactive: 86%

Q: Which survival does the source give for `COC(=O)c1cc2sc(C)cc2n1Cc1nc(-c2ccc(C)cc2)oc1C` here?
A: inactive: 114%

Q: For `O=C(NCCc1ccc(Cl)cc1)C(=O)NCC(c1cccs1)S(=O)(=O)c1ccccc1` (stereo unspecified), which survival is on record?
A: inactive: 73%

Q: With `O=C(CSc1nnc(-c2ccccc2O)o1)Oc1ccc(OCc2ccccc2)cc1` as the compound, how does the survival read?
A: inactive: 106%

Q: For `Cc1ccc(Nc2c(-c3ccc(C)cc3)nc3c(C)cccn23)cc1`, which survival is on record?
A: active: -1%

Q: Which survival does the source give for `CC(C)c1ccc(Nc2c(-c3ccc(N(C)C)cc3)nc3cnccn23)cc1` here?
A: inactive: 49%

Q: For `COc1ccc(-c2noc(CSc3nc4ccccc4[nH]3)n2)cc1`, which survival is on record?
A: inactive: 55%

Q: `CCc1cccc(C)c1NC(=O)CCS(=O)(=O)c1ccc2c(c1)oc(=O)n2C` was tested. Which survival did it give?
A: inactive: 82%

Q: With `COc1cccc(CN(C(=O)c2oc3ccccc3c2C)C2CCS(=O)(=O)C2)c1` (stereo unspecified) as the compound, how does the survival read?
A: inactive: 82%

Q: For `O=C(Cc1ccc(Cl)cc1)Nc1ccc2oc(-c3ccccc3F)nc2c1`, which survival is on record?
A: inactive: 153%

Q: Which survival does the source give for `CNC(=O)c1c(NC(=O)Cc2coc3ccc(OC)cc23)sc2c1CCCC2` here?
A: inactive: 87%

Q: For `CC(=O)Nc1sc2c(c1C(N)=O)CCCC2`, which survival is on record?
A: inactive: 101%

Q: For `O=C(COc1ccccc1)Nc1ccc2nc(SCC(=O)N3CCCC3)sc2c1`, which survival is on record?
A: inactive: 77%

Q: With `COc1ccc(C2CC(=O)Oc3c2c(=O)n(C)c2ccccc32)c(OC)c1OC` (stereo unspecified) as the compound, how does the survival read?
A: inactive: 64%

Q: For `O=c1nc(N(c2ccccc2)c2ccccc2)[nH]c(=O)[nH]1`, which survival is on record?
A: inactive: 109%

Q: `CCOc1ccc(NC(=O)CS(=O)(=O)Cc2nc(-c3ccc(C)cc3)oc2C)cc1` was tested. Which survival did it give?
A: inactive: 91%

Q: How did the survival turn out when `Fc1ccc(N2CCN(c3ncnc4c3nc3n4CCCC3)CC2)cc1` was run?
A: inactive: 126%

Q: Which survival does the source give for `COc1ccc(OC)c2sc(N(CCCN(C)C)C(=O)c3ccco3)nc12` here?
A: inactive: 134%

Q: How did the survival turn out when `Cc1ccccc1CNC(=O)CCSCc1cnn(-c2ccccc2)c1-n1cccc1` was run?
A: inactive: 79%

Q: How did the survival turn out when `COc1ccc(C2c3c(-c4ccc(F)cc4)n[nH]c3C(=O)N2c2ccccc2)cc1OC` (stereo unspecified) was run?
A: inactive: 134%

Q: For `CCOC(=O)c1ccc(NC(=O)c2ccc(-c3cccc(Cl)c3C)o2)cc1`, which survival is on record?
A: inactive: 59%

Q: How did the survival turn out when `CCOc1ccc(CCNC(=O)c2cc3c(-c4ccccc4F)nn(C)c3s2)cc1OCC` was run?
A: inactive: 73%

Q: Which survival does the source give for `O=c1c2oc3ccccc3c2ncn1Cc1ccc(Br)cc1` here?
A: inactive: 111%

Q: Which survival does the source give for `COc1ccc(C2c3c(oc4ccccc4c3=O)C(=O)N2c2nc(C)c(C)s2)cc1` (stereo unspecified) here?
A: inactive: 71%

Q: For `CCSc1nnc(CNc2ccc(F)cc2)n1CC1CCCO1` (stereo unspecified), which survival is on record?
A: inactive: 96%

Q: How did the survival turn out when `CCOc1ccc(C(NC(=O)c2cc(OC)c(OC)c(OC)c2)c2cc(Cl)c3cccnc3c2O)cc1` (stereo unspecified) was run?
A: inactive: 129%

Q: `Cc1ccc2nc(CN3CCN(S(=O)(=O)c4ccccc4)CC3)oc2c1` was tested. Which survival did it give?
A: inactive: 73%

Q: `Cc1nc2nc(C)c(CCC(=O)NCCc3ccccc3)c(C)n2n1` was tested. Which survival did it give?
A: inactive: 70%

Q: With `O=C(Cn1cc(S(=O)(=O)Cc2ccccc2Cl)c2ccccc21)Nc1cccc(C(F)(F)F)c1` as the compound, how does the survival read?
A: inactive: 71%

Q: How did the survival turn out when `Cc1ccc(S(=O)(=O)N(CC(=O)Nc2c(C)cccc2C)c2cccc(Cl)c2)cc1` was run?
A: inactive: 72%

Q: For `COC(=O)c1cc(C)nc2c1c(=O)nc(SCc1c(C)cc(C)cc1C)n2C1CC1`, which survival is on record?
A: inactive: 127%
